Out of some 310,000 compounds screened, about 18,000 (5.8%) were called active. The shares of active, inactive and inconclusive entries below differ from those in the screen. The call rests on the fitted dose curve; in most records, active means well fitted inhibition curve with a large enough effect; inconclusive means small, poorly fitted or top-dose-only effect, or another doubt; inactive means no such curve, though single readings can be large or run the other way. Potencies of inconclusive entries are left out as doubtful fits.
Experiment: Primary qHTS for delayed death inhibitors of the malarial parasite plastid, 48 hour incubation
Settings: P. falciparum luciferase growth in erythrocytes; series mostly up to 28.7 µM
Summary of the method: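 Erythrocytes infected with P. falciparum carrying an integrated firefly luciferase reporter (2% hematocrit, 0.1% parasitemia final) were exposed to compounds in RPMI 1640 with 0.5% Albumax at 37 C, 5% CO2. Growth inhibition was scored as reduced luminescence.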
On the % scale 0 is the no-effect control and ±100 the full control effect; potency means the concentration at half of the fitted maximal effect; tags describe the fitted curve by direction and shape.

For CN1C2CCC1/C(=C\c1ccccc1Cl)C(=O)/C2=C\c1ccccc1Cl, which Potency is on record?
Its Potency is inconclusive [inhibitor, single point].

Which Potency does the source give for CCOc1ccccc1NC(=S)NCc1ccccc1 here?
The Potency was inconclusive [inhibitor, single point].

Which Potency does the source give for CN1CCCC(OC(=O)c2cccc(S(=O)(=O)N3CCCCCC3)c2)C1 (centres undefined) here?
Its Potency is inconclusive [inhibitor, single point].

With CCCCOc1ccc(C(=O)NCC(=O)NCCOc2ccccc2OC)cc1 as the compound, how does the Potency read?
Its Potency is “inactive”.

For Cc1ccc(N(CC(O)Cn2c3ccccc3c3ccccc32)S(C)(=O)=O)c(C)c1 (centres undefined), which Potency is on record?
Its Potency is active: 4.65 µM.

With O=C(Cc1ccc(Cl)cc1)NCCCn1ccnc1 as the compound, how does the Potency read?
Its Potency is inconclusive [inhibitor, single point].

Which Potency does the source give for CCOc1ccc(S(=O)(=O)N2CCOCC2)cc1NC(=O)CSCc1c(C)noc1C here?
The Potency was inconclusive [inhibitor, partial curve].

With Cc1cc2c(c(=O)n1CCN(C)C)C(c1ccccc1Br)C(C#N)=C(N)O2 (centres undefined) as the compound, how does the Potency read?
The Potency was inconclusive [inhibitor, single point].

For CCOC(=O)C1CCN(CCC(=O)Nc2ccc(Br)cc2)CC1, which Potency is on record?
Its Potency is inconclusive [inhibitor, single point].

Which Potency does the source give for CC(C)c1ccc(NC(=O)N2C[C@H]3C[C@@H](C2)c2cccc(=O)n2C3)cc1 here?
The Potency was inconclusive [inhibitor, single point].

With CCCc1nnc(SCC(=O)Nc2nccs2)o1 as the compound, how does the Potency read?
The Potency was active: 9.28 µM.

With O=C(O)c1cccnc1SCc1ccccc1Cl as the compound, how does the Potency read?
Its Potency is “inactive”.

With O=C(CNC(=O)c1ccc([N+](=O)[O-])cc1)N/N=C\c1ccc(OC(=O)c2ccccc2)cc1 as the compound, how does the Potency read?
Its Potency is inconclusive [inhibitor, partial curve].

For Cc1ccc(S(=O)(=O)c2cc3ccc(O)cc3oc2=O)cc1C, which activity change, negative = inhibition is on record?
Its activity change, negative = inhibition is inactive: 0.785% [at 0.00184 µM].

With Cc1ccc(NC(=O)CN2C(=O)COc3ccc(S(=O)(=O)N4CCOCC4)cc32)cc1N(C)C as the compound, how does the Potency read?
Its Potency is inconclusive [inhibitor, single point].

Which Potency does the source give for CC(=O)Nc1ccc(S(=O)(=O)N2CCc3cc4c(cc3C2C)OCCCO4)cc1 (centres undefined) here?
The Potency was inconclusive [inhibitor, single point].

Which Potency does the source give for CC(CCc1ccccc1)NC(=O)c1cnc(Cl)c(Cl)c1 (centres undefined) here?
Its Potency is “inactive”.

With CCOc1ccc(S(=O)(=O)n2cnc(C)c2)cc1 as the compound, how does the Potency read?
Its Potency is inconclusive [inhibitor, full curve, poor fit].

Which Potency does the source give for CCN(CCO)c1nc(SC)nc2c1sc1nc(-c3ccco3)c3c(c12)CCC3 here?
The Potency was inconclusive [inhibitor, partial curve, poor fit].

With Cc1cccc(-n2ncc(Cl)c(Cl)c2=O)c1 as the compound, how does the Potency read?
Its Potency is inconclusive [inhibitor, partial curve, poor fit].

With CC(C)(C)c1nc(-c2ccccc2)nc2c1OCCC2 as the compound, how does the Potency read?
The Potency was “inactive”.

For O=C(CSc1nnc(-c2c[nH]c3ccccc23)o1)N(Cc1ccccc1)c1ccc(F)cc1, which Potency is on record?
The Potency was active: 7.38 µM.

For Cc1ccnc(NC(=O)C2CCCN(S(=O)(=O)c3cnc[nH]3)C2)c1 (centres undefined), which Potency is on record?
Its Potency is “inactive”.

For COc1ccc(OC)c(Nc2cc(C(=O)NCCCN3CCOCC3)c3ccccc3n2)c1, which Potency is on record?
Its Potency is inconclusive [inhibitor, single point].

With COc1cccc(/C=C2\SC(=S)N(CCC(=O)NCCc3ccc(O)cc3)C2=O)c1 as the compound, how does the Potency read?
Its Potency is inconclusive [inhibitor, single point].

Which Potency does the source give for CC[C@H](C)[C@@H](C(=O)NCCCCCCCCCCC(=O)N1CCNCC1)n1cc(CCCCN=C(N)N)nn1 here?
Its Potency is active: 2.94 µM.

With O=C(c1ccco1)N1CCN(Cc2cc(=O)c(OCc3c(F)cccc3Cl)co2)CC1 as the compound, how does the Potency read?
Its Potency is inconclusive [inhibitor, single point].

With O=C(CCN1C(=O)/C(=C\c2cccs2)SC1=S)NC1=NCCS1 as the compound, how does the Potency read?
Its Potency is “inactive”.

Which Potency does the source give for CCN(CC)C(=O)CSc1nc2c(sc(=S)n2-c2ccccc2)c(=O)n1-c1ccc(OC)c(OC)c1 here?
Its Potency is active: 4.65 µM.

Which Potency does the source give for CCOc1ccc(CCNC(=O)c2cc3sccc3n2CC)cc1OCC here?
The Potency was inconclusive [inhibitor, single point].

Which Potency does the source give for COc1ccc2c(c1)C(c1ccccc1)=NNC(c1ccco1)=N2 here?
The Potency was inconclusive [inhibitor, partial curve, poor fit].

Which Potency does the source give for Cc1ccccc1N1CC(=O)Nc2c(oc3nc(-c4ccccc4)cc(C)c23)C1=O here?
Its Potency is inconclusive [inhibitor, single point].

With Cc1nc2c(-c3ccc(F)cc3)c(C)nn2c(N2CCOCC2)c1C as the compound, how does the Potency read?
Its Potency is inconclusive [inhibitor, partial curve].

Which Potency does the source give for CN(c1ccc(C(=O)NCCSC(C)(C)C)cc1)S(=O)(=O)c1ccccc1 here?
Its Potency is inconclusive [inhibitor, single point].

For Cc1onc(-c2ccccc2)c1CNC(=O)Nc1cccc(Cl)c1, which Potency is on record?
The Potency was “inactive”.

For Cc1cc(C)c(C#N)c(SCC(=O)CC(=O)OC(C)C)n1, which Potency is on record?
The Potency was inconclusive [inhibitor, single point].

Which Potency does the source give for O=C(O)CCc1ccc(-c2ccc(F)cc2)n1CC(=O)O here?
The Potency was “inactive”.

Which Potency does the source give for CCCCc1cc2c(cn1)=C(OC(=O)c1cnc3ccccc3n1)C(C)(OC(=O)CC)C(=O)C=2 (centres undefined) here?
The Potency was inconclusive [inhibitor, single point].

For CCC(CC)C1C(C#N)=C(N)Oc2c1c(=O)oc1ccccc21 (centres undefined), which Potency is on record?
Its Potency is inconclusive [inhibitor, single point].

Which Potency does the source give for N#Cc1c(N)n(CCOC(=O)c2cccc([N+](=O)[O-])c2)c2nc3ccccc3nc12 here?
Its Potency is inconclusive [inhibitor, partial curve, poor fit].

Which Potency does the source give for CC1=C(C(=O)NCc2ccccc2)C(c2cc(Br)cc(Br)c2OC(C)C)NC(=O)N1 (centres undefined) here?
The Potency was inconclusive [inhibitor, single point].

For C=CCn1c(O)c(CN2CCOCC2)c(C)c(C#N)c1=O, which Potency is on record?
Its Potency is “inactive”.

For CCOC(=O)c1cc(-c2ccccc2)nc2c1c(C)nn2-c1ccccn1, which Potency is on record?
The Potency was inconclusive [inhibitor, single point].

With Cc1ccc(Cn2c(-n3nc(C)cc3C)nc3c2c(=O)[nH]c(=O)n3C)cc1 as the compound, how does the Potency read?
The Potency was inconclusive [inhibitor, single point].

For CCCCN(Cc1nc2ccccc2c(=O)[nH]1)C(=O)CN1C(=O)NC2(CCCCC2)C1=O, which Potency is on record?
The Potency was inconclusive [inhibitor, partial curve, poor fit].

With C=CCN(CC=C)S(=O)(=O)c1ccc(NC(=S)NC(=O)/C=C/c2ccc(C)cc2)cc1 as the compound, how does the Potency read?
Its Potency is inconclusive [inhibitor, single point].

For COc1cc(Br)c(/C=C/c2ccc3cccc(O)c3n2)cc1OC, which Potency is on record?
The Potency was active: 2.62 µM.

For COCCCNC(=O)c1ccc2c(=O)n(Cc3ccccc3OC)c(=S)[nH]c2c1, which Potency is on record?
The Potency was inconclusive [inhibitor, single point].

Which Potency does the source give for CCCCN(C)CCNC(=O)c1ccc(Cn2c(=S)[nH]c3ccc(Br)cc3c2=O)cc1 here?
The Potency was inconclusive [inhibitor, partial curve, poor fit].

Which Potency does the source give for Cc1c(S(=O)(=O)Nc2ccc3c(c2)OCCO3)cnn1C here?
Its Potency is “inactive”.

Which Potency does the source give for CCOC(=O)c1ccc(NCc2ccc(N(C)C)cc2)cc1 here?
The Potency was “inactive”.

With CC(=O)O[C@@H]1C[C@H]2C(C)(C)C(=O)C=C[C@]2(C)[C@H]2CC[C@@]3(C)[C@H](c4ccoc4)OC(=O)[C@H]4O[C@]43[C@@]21C as the compound, how does the Potency read?
The Potency was active: 1.65 µM.

For O=C(NCCCN1CCN(Cc2ccccc2)CC1)C1CCN(c2nnc(-n3cccc3)s2)CC1, which Potency is on record?
The Potency was inconclusive [inhibitor, full curve].

With O=[N+]([O-])c1cc([N+](=O)[O-])c2c(=Nc3ccccc3)n(-c3ccccc3)n(O)c2c1 as the compound, how does the Potency read?
The Potency was inconclusive [inhibitor, single point].

For N#Cc1cnc(NN)nc1, which Potency is on record?
The Potency was active: 10.4 µM.

Which Potency does the source give for Cn1nnnc1SCC(=O)NCc1cccs1 here?
Its Potency is “inactive”.

With CCN1C(=O)[C@H]2[C@H]3[C@H](O)[C@H](O)C/C(=N\OC[C@@H](C)[C@H](OCc4ccccc4)C(C)C)[C@@H]3CC[C@H]2C1=O as the compound, how does the Potency read?
The Potency was active: 10.4 µM.

With O=S(=O)(NCCc1ccccn1)c1ccc(F)c(F)c1 as the compound, how does the Potency read?
Its Potency is “inactive”.

For COCCSc1nnc(NC(=O)c2cc(C(=O)OC)cc([N+](=O)[O-])c2)s1, which Potency is on record?
Its Potency is inconclusive [inhibitor, partial curve, poor fit].

Which Potency does the source give for COC(=O)C1=C(c2ccccc2OCc2ccccc2)C[C@@H]2CC[C@H]1N2C(=O)NCc1ccc(C(F)(F)F)cc1 here?
Its Potency is active: 13.1 µM.

Which Potency does the source give for CN(C)CCN(C(=O)c1ccc2c(c1)OCCO2)c1nc2cc3c(cc2s1)OCO3 here?
The Potency was “inactive”.

With c1cncc(-c2nc(N3CCOCC3)c3c4c(sc3n2)CCC4)c1 as the compound, how does the Potency read?
Its Potency is inconclusive [inhibitor, partial curve].

For O=C(NCc1ccco1)c1ccc2ccccc2c1, which Potency is on record?
Its Potency is “inactive”.

Which Potency does the source give for [O-][n+]1ccccc1SCc1ccccc1 here?
The Potency was inconclusive [inhibitor, single point].

Which Potency does the source give for COc1ccccc1NC(=O)CSc1ccc(-c2ccco2)nn1 here?
The Potency was “inactive”.

Which Potency does the source give for S=C(Nc1cccc(Cl)c1)NC1CCCCC1 here?
Its Potency is inconclusive [inhibitor, partial curve, poor fit].

With O=C(CCc1nnc(Cc2ccc(-c3ccccc3)cc2)o1)NCC1CC1 as the compound, how does the Potency read?
The Potency was “inactive”.

For CC(C)c1nnc(SCC(=O)N2CCOCC2)n1C, which Potency is on record?
The Potency was “inactive”.

For COc1ccc(Cl)cc1NC(=O)CN(C)C(=O)C1CC(=O)N(Cc2ccc(C)cc2)C1 (centres undefined), which Potency is on record?
Its Potency is inconclusive [inhibitor, partial curve, poor fit].

Reference: PubChem BioAssay AID504832 (National Center for Advancing Translational Sciences (NCATS), 2011)
